# Test results reported in PubChem BioAssay AID1362 (SRMLSC, 2008).
# The list shows a part of the results. The main result of the screen is listed elsewhere. These columns were measured beside it and carry no call. Most of these compounds were active or inconclusive in the main read-out, so they are no random draw.
# Assay: growth inhibition of WT strain, primary screen, mitochondrial fusion inhibitor project, WT and mutant strains, chemical genetic (AID 1362); note: tested in S. cerevisiae
# Details: mitochondrial fusion phenotypic screen, at 10 µM
row,Compound,inhibition [%]
1,Cc1ccc(N=C(NOCc2ccc(Cl)cc2Cl)c2nonc2N)c(C)c1,-3.12
2,FC(F)(F)c1cccc(NC(=S)NCC2COc3ccccc3O2)c1 (stereo not given),47.9
3,Clc1ccc(CSc2nnc(-c3ccncc3)o2)c(Cl)c1,2.5
4,CCOC(=O)Cc1c(Sc2ccccc2)c2ccccc2n1C,47.2
5,Cc1cc(Nc2cccc(Cl)c2)nc(NCc2ccccc2)n1,97.1
6,Cc1ccccc1Cn1c(Cc2ccccc2)nc2ccccc21,69.1
7,CC(Oc1ccc(Cl)cc1Cl)C(=O)NCCCCc1ccccc1 (stereo not given),-2.64
8,CC(C)NS(=O)(=O)c1ccc(NC(=O)C2CC3C=CC2C3)cc1 (stereo not given),15.9
9,CN1/C(=C\C=Nc2ccc3ccccc3c2)C(C)(C)c2ccccc21,0.23
10,CCOC(=O)CNS(=O)(=O)c1cc(-c2nn(C)c(=O)c3ccccc23)ccc1C,1.59
11,CCn1ccnc1CN(C)Cc1cn(-c2ccc(C)cc2)nc1-c1cccc(C)c1,63.3
12,CC1(C)C2CC=C(/C=N/NC(=S)NCCc3ccccc3)C1C2 (stereo not given),39.6
13,CN(C)CCCN(C(=O)COc1ccc(Cl)cc1)c1nc2ccc(F)cc2s1,33.5
14,CC(C)N(Cc1nc(-c2ccc(Cl)cc2)no1)C(=O)CCC1CCCC1,17.7
15,Cc1ccc(Nc2cc(C)nn2-c2nc(C)cc(C)n2)cc1,67.5
16,Cc1cc(Cl)n2c(nc3cc(F)c(F)cc32)c1C#N,75.6
17,O=C(COc1ccccc1[N+](=O)[O-])N/N=C/C=C/c1ccco1,-6.91
18,Cc1cccc(N=Nc2c(C)[nH]n(C(N)=S)c2=O)c1C,62.8
19,CCOC(=O)c1sc2nc(CSc3ccccc3)nc(N3CCCN(C)CC3)c2c1C,88.1
20,CC1CCN(c2ccccc2NC(=S)NC(=O)C(C)(C)C)CC1,29
21,CC(=O)N(Cc1cc2c(C)cc(C)cc2[nH]c1=O)C1CCCCC1,97.4
22,CSc1ccc(Cl)c(C(=O)NCCOc2cc(C)ccc2C(C)C)c1,9.52
23,CCCCCCCn1c2c(c(=N)c3ccccc31)CCC2,79.7
24,COc1cccc(-c2nc(-c3ccccc3)nc(N3CCN(C)CC3)c2C#N)c1,71.6
25,Cc1ccc(S(=O)(=O)Nc2cccc3ncccc23)s1,70.2
26,CC(C)(C)c1ccccc1NC(=S)NC1CCCCC1,63.3
27,S=C(Nc1ccc(Oc2ccccc2)cc1)NC1CCCC1,44.4
28,CN(C)CCNC(=O)COc1ccc(C23CC4CC(CC(C4)C2)C3)cc1,94.8

row,Compound,inhibition [%]
1,COc1cc2c(C(=O)NCc3ccc(C)o3)cn(CC(C)C)c(=O)c2cc1OC,1.77
2,Cc1cccnc1NC(=S)NCCc1ccccc1,58.7
3,O=C1C=C(NC(=O)Nc2ccc(Cl)c(Cl)c2)CCC1,67.2
4,C=CCSc1nnc(NC(=O)COc2ccc3ccccc3c2)s1,-13.2
5,CC(C)(C)c1ccc(C(=O)NC(=S)NNC(=O)c2cccs2)cc1,73.8
6,O=C(Nc1nc(-c2cccs2)cs1)c1ccc(Cl)cc1,30.3
7,CC(C)C(=O)N1CCC(CN=Cc2c(O)n(C3CCCCC3)c(=O)n(C3CCCCC3)c2=O)CC1,16.6
8,CSCc1nnc(NC(=O)c2ccc(S(=O)(=O)N(CC(C)C)CC(C)C)cc2)o1,11
9,COc1cc(C2NCC(c3ccc(Cl)cc3Cl)c3c2[nH]c2ccccc32)cc(OC)c1OC (stereo not given),48.7
10,S=C1NCCc2ccccc2C1c1ccccc1Cl (stereo not given),45.5
11,Nc1c(-c2ccccc2)c(CSc2nc3ccccc3[nH]2)nn1-c1ccc(Cl)cc1,24.8
12,CC(C)c1ccc(C2CC(c3ccc(Br)cc3)=NN2C(N)=S)cc1 (stereo not given),54
13,FC(F)(F)c1cc(-c2ccccc2)nc(NC2CCCC2)n1,50.3
14,O=[N+]([O-])c1ccc(-c2csc3[n+]2CCS3)cc1,67.3
15,Cc1cc(N/N=C/c2ccc(Cl)cc2Cl)nc(NCc2ccccc2)n1,81
16,Nn1c(Cc2cccc3ccccc23)nnc1SCCOc1ccc(Br)cc1,57.9
17,Cc1ccc(NC(=O)c2cc(C)n(-c3cccc(C)c3)c2C)cc1,21.4
18,CCCCn1c(-c2csc(CCC)c2)n[nH]c1=S,60
19,CCOc1ccccc1NC(=O)C(OC(=O)c1ccc(O)cc1)c1ccccc1 (stereo not given),25.8
20,CCCCn1c(-c2csc(CC)c2)n[nH]c1=S,55.8
21,COC(=O)C1CCN(C(=O)c2cc(OC)c(OC)c(OC)c2)CC1,19.6
22,O/N=C/c1cc(Br)cc(Br)c1OCc1ccccc1,28.8
23,C=C1/C(=C\C=C2/CCC[C@]3(C)[C@@H]([C@H](C)CCCC(C)(C)O)CC[C@@H]23)C[C@@H](O)C[C@@H]1O,30.1
24,Cn1ccnc1SCC(=O)c1ccc(Br)cc1,23.5
25,O=C(CNC(=S)N(Cc1ccccc1)Cc1cccs1)NCc1ccc(F)cc1,7.5
26,Cc1ccccc1CS(=O)(=O)c1nnc([C@H](CC(C)C)NC(=O)OC(C)(C)C)o1,68.9
27,CSC(=S)N/N=C/c1ccc(Br)cc1,23.6
